Data from PubChem BioAssay AID1963576 (National Center for Advancing Translational Sciences (NCATS), 2024).
Among all 46,000 compounds or so, about 60 (0.1%) were called active. About 3% were inconclusive and are not listed. The call rests on the fitted dose curve; in most records, active means well fitted inhibition curve with a large enough effect; inconclusive means small, poorly fitted or top-dose-only effect; inactive means no such curve, though single readings can be large or run the other way. Some of the results follow.

Assay: Primary qHTS assay for Inhibitors of ovarian cancer metastasis using an organotypic tumor microenvironment (TME) model. Further: nearly all actives have a fitted effect of over 65% in size.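 On activity change, negative = inhibition: plate controls were DMSO wells for no effect and tomatine positive control wells for full effect.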
Conditions: SKOV3ip1-GFP adhesion/invasion on 3D omental model, fluorescence; series mostly up to 45.8 µM; activity change, negative = inhibition: at the top concentration
How it was run: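 A 3D layer of primary human omental fibroblasts, mesothelial cells, fibronectin and collagen I, grown 48 hr, received SKOV3ip1-GFP cells in serum-free medium plus compounds at 0.36-46 umol/L. After 2 hr RT and 16 hr 37 C, fixed adherent GFP cells were counted; normalized to DMSO and tomatine.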

Activity change, negative = inhibition, inactive:
CN(C)c1ccc(CNC(=O)Cc2ccc(NC(=O)N3CCCCc4ccccc43)cc2)cc1 0.0366%
Cc1ccccc1OC(=O)c1nc(SCc2ccccc2F)ncc1Cl 1.88%
COc1ccc(N2CCN(CCCNC(=O)c3nnc(Cc4ccc(F)cc4)o3)CC2)cc1 -4.63%
CCOC(=O)Cn1c(=O)n(-c2cccc(Cl)c2)c2nc(-c3ccccc3Cl)nc(C(N)=O)c21 14.1%
Cc1ccc2c(CC(=O)Nc3ccc(S(=O)(=O)N4CCCCC4C)cc3)coc2c1C (stereo not given) -23%
Cc1ccc(N2CCN(S(=O)(=O)c3nnc(NC(=O)c4ccccc4)s3)CC2)cc1 5.76%
O=C(Cn1cnc2nc3c(cc2c1=O)CCCC3)Nc1ccc(F)cc1Cl 9.95%
CCOCCc1nnc(NC(=O)C(=O)c2cc(C)n(-c3ccc(C)c(C)c3)c2C)s1 6.81%
Cc1ccc(C)c(N2CCN(c3nc4ccc(C)cc4nc3-n3nc(C)cc3C)CC2)c1 -13.9%
O=C(Nc1ccccc1C(=O)OCc1cc(=O)n2nc(C3CC3)sc2n1)c1ccc(Cl)cc1 3.17%
Cc1cc(C)n(CCC(=O)Nc2ccc(Cl)cc2)n1 4.61%
CCOc1ccc(N2CC(NC(=O)c3ccc4c(c3)OCO4)CC2=O)cc1 (stereo not given) 0.147%
CCCCNc1nc2c(S(=O)(=O)c3ccc(C)cc3)nnn2c2ccsc12 7.71%
CCOC(=O)CNC(=O)c1cc2c(=O)oc3ccccc3c2s1 2.46%
CCC(C)NC(=O)c1ccc2c(c1)sc1nc(-c3ccc(OC)cc3)cn12 (stereo not given) -9.38%
Cc1ccc(N2CC(NC(=O)c3ccc(S(=O)(=O)N(C)C)cc3)CC2=O)cc1C (stereo not given) 8.35%
O=C(NCC(c1cccs1)S(=O)(=O)c1cccs1)c1ccc(F)c(F)c1 (stereo not given) 9.72%
CCOc1ccc(CCNC(=O)c2ccc3c(c2)N(Cc2ccc(F)cc2)CCS3)cc1 4.89%
CCC(CC)C(=O)N1c2ccccc2C(C)(c2ccccc2)CC1(C)C (stereo not given) 3.17%
COC(=O)CN1C(=O)CSc2ccc(S(=O)(=O)Nc3ccc(F)c(Cl)c3)cc21 8.26%
COc1ccc(C(=O)NCCSc2c[nH]c3ccccc23)cc1OC 3.98%
CC(C)Cc1cc(C(=O)NCc2ccc(Cl)cc2)no1 23.9%
CCc1ccc2oc(-c3ccc(C)c(NC(=O)c4cc([N+](=O)[O-])ccc4N4CCOCC4)c3)nc2c1 2.83%
CCOC(=O)Cn1c(=O)oc2cc(S(=O)(=O)N3CCN(c4cccc(Cl)c4)CC3)ccc21 -1.93%
Cc1cc(C)c(Cn2c(=O)n(CCC(=O)NCCc3ccccc3)c(=O)c3ccccc32)c(C)c1 53.6%
COc1ccc(OC)c(CCNC(=O)c2c(C)oc3ncn(CC(C)C)c(=O)c23)c1 8.6%
CN1CCN(C(CNC(=O)c2ccc(F)cc2)c2ccc3c(c2)OCO3)CC1 (stereo not given) 12.3%
CC(=O)N1CCc2c(sc3c2c(=O)n(Cc2ccccc2)c(=O)n3Cc2ccc(Cl)cc2)C1 28.2%
CCN(CC)c1ccc(C(=O)N2CCc3c([nH]c4ccccc34)C2c2ccc(F)cc2)cc1 (stereo not given) 4.82%
Cc1ccc(NC(=O)c2cccc3c(=O)c4c([nH]c23)CCCC4)c(C)c1 7.91%
CCOc1ccc(NC(=O)Nc2nnc(N3CCCCC3C)s2)cc1 (stereo not given) 9.04%
CCOC(=O)c1sc2ccccc2c1S(=O)(=O)Nc1ccc(OC)c(Cl)c1 -2.85%
COc1cccc(CNC(=O)c2c(C)nn(-c3ccc(F)cc3)c2-n2cccc2)c1 11.2%
COCCN(CCOC)S(=O)(=O)c1ccc(C(=O)Nc2sc3c(c2C(N)=O)CCCC3)cc1 13.2%
CCCn1c(=N)c(C(=O)NCC2CCCO2)cc2c(=O)n3cc(C)ccc3nc21 (stereo not given) -2.12%
Cc1cccc(CSc2cn(CC(=O)N3CCOCC3)c3ccccc23)c1 9.77%
Cc1ccc(Cl)cc1-n1ncc2c(NCCc3ccccc3)ncnc21 0.113%
COc1cccc(NC(=O)Cn2nc(N3CCN(c4ccccc4)CC3)ccc2=O)c1 -4.99%
COc1ccc(S(=O)(=O)N2CCC(c3nc4ccccc4s3)CC2)cc1OC 6.96%
Cc1ccc(NC(=O)Cn2c(=O)n(Cc3nc(-c4ccccc4)no3)c(=O)c3ccccc32)c(C)c1 7.04%
CCCCNc1nc2c(S(=O)(=O)c3ccc(Br)cc3)nnn2c2ccsc12 3.4%
CCC(=O)N1CCc2cc(S(=O)(=O)NC(Cc3ccccc3)C(=O)NCc3ccccc3)ccc21 (stereo not given) 10.1%
CCN(C(=O)CN1C(=O)c2ccccc2Sc2ccc(C(=O)OC)cc21)c1cccc(C)c1 -6.3%
CCCCC[C@H](O)C=C[C@H]1[C@H](O)CC(=O)[C@H]1CCCCCCC(=O)O -0.932%
CC(CCc1ccccc1)NC(=O)CSc1n[nH]c(-c2ccccc2)n1 (stereo not given) -1.66%
COc1ccccc1NC(=O)c1c(-c2ccc(C)cc2)nnc2ccccc12 9.93%
Cc1ccc(Nc2c(-c3ccccn3)nc3ccc(Br)cn23)cc1 2.77%
CCC(=O)N1CCc2cc(Br)cc(S(=O)(=O)N3CCCC(C(=O)Nc4ccc(C)c(F)c4)C3)c21 (stereo not given) -6.01%
O=C(Nc1cc(Cl)ccc1Cl)c1ccc2c(c1)N(Cc1cccc(Cl)c1)C(=O)c1ccccc1S2=O (stereo not given) -0.327%
O=C(NCc1cccs1)c1ccc2c(c1)sc1nc(-c3ccc(F)cc3)cn12 -21.7%
Cc1ccc2oc(C(=O)Nc3c(C(=O)Nc4cccc(Cl)c4)oc4ccccc34)cc(=O)c2c1 0.867%
COc1c(Cl)cc(C(=O)Nc2cc(-c3nc4ccccc4[nH]3)ccc2C)cc1Cl -7.21%
Cc1nn(-c2ccccc2)c(OC(=O)c2ccccc2)c1S(=O)(=O)c1ccccc1 5.23%
Cc1ccc(N2C(=O)CS(=O)(=O)C23C(=O)Nc2ccccc23)cc1C (stereo not given) 9.8%
O=C(Nc1ccccc1C(F)(F)F)N1CCOc2ccc(Cl)cc21 16%
Cc1ccccc1Cn1ccn(-c2ccc(F)c(F)c2)c(=O)c1=O -1.11%
CC(C)c1ccc(C2CC(=O)Nc3cc4c(cc32)OCCO4)cc1 (stereo not given) 25.7%
CN(Cc1nc(-c2ccc(Cl)cc2)no1)S(=O)(=O)c1ccccc1 -13.7%
CCOc1ccccc1-c1noc(CSc2nnc(-c3ccccc3)n2-c2ccc(OC)cc2)n1 -9.13%
CCOC(=O)N1CCC(NC(=O)c2ccc3c(c2)N(Cc2ccccc2C)C(=O)c2ccccc2S3=O)CC1 (stereo not given) 2.47%
CCOC(=O)N1CCc2c(sc3c2c(=O)n(-c2ccc(CC)cc2)c(=O)n3Cc2ccc(F)cc2Cl)C1 15.1%
COc1ccccc1N1CCN(C(=O)c2cc3c(=O)n(Cc4cccs4)ccc3nc2C)CC1 -4.35%
CCc1ccc(NC(=O)Cn2nnc(-c3ccccc3N)n2)cc1 2.83%
COc1ccc(N2CCN(CCCNC(=O)c3c(C)nn(-c4ccc(F)cc4)c3-n3cccc3)CC2)cc1 -9.32%
CCOc1ccc(NC(=O)Cn2nc(Cc3cccnc3)c3ccccc3c2=O)cc1 10.2%
COc1ccccc1NC(=O)N1CCN(c2ccc3nnc(-c4ccc(F)cc4)n3n2)CC1 7.71%
CC(C)C(=O)Nc1nnc(S(=O)(=O)N2CCc3ccccc32)s1 6.74%
Nc1nc2[nH]cc(CCc3ccc(C(=O)N[C@@H](CCC(=O)O)C(=O)O)cc3)c2c(=O)[nH]1 1.16%
Cc1cccc(N2CCN(c3ccc4cc(S(=O)(=O)N5CCC(C)CC5)ccc4n3)CC2)c1C -0.471%
CCOC(=O)c1c(NC(=O)Cc2coc3ccc(CC)cc23)sc2c1CCC2 -2.39%
Cc1ccc(OCC(=O)Nc2ccc(OCc3cc(=O)n4c(C)csc4n3)cc2)cc1C -7.62%
O=c1oc2ccccc2cc1-c1cn2cc(Cc3ccc(F)cc3)sc2n1 8.12%

outcome, inactive:
CCc1ccc2ncc3c(-c4ccc(F)cc4)nn(CC(=O)NC4CCCCC4)c3c2c1
COc1ccc(N2CCN(C(=O)c3cc4c(=O)oc5ccc(C)cc5c4s3)CC2)cc1
Cc1c(C)n(Cc2ccccc2)c2ccc(C(=O)NCC(C)c3ccccc3)cc12 (stereo not given)
COC(=O)c1sccc1S(=O)(=O)N(CC(=O)Nc1cc(C)ccc1C)c1ccc(C)c(C)c1
COc1ccccc1CNC(=O)CSc1nc(-c2ccc(OC)c(OC)c2)cc(C(F)(F)F)n1
O=C(Cn1cc(S(=O)(=O)Cc2cccc(Cl)c2)c2ccccc21)Nc1ccccc1C(F)(F)F
O=C(CSc1nc2c([nH]c3ccccc32)c(=O)n1-c1cccc(Cl)c1)N1CCCC1
CSc1ncc(C(=O)Nc2cc(C)cc(C)c2)c(-c2ccccc2)n1
COc1ccc(-n2c(=O)c3c4c(sc3n(Cc3ccc(F)cc3)c2=O)CN(C(C)=O)CC4)c(OC)c1
Clc1ccc(CSc2ccc(-c3cccs3)nn2)cc1
O=C(O)c1sc(Nc2ccccc2)nc1-c1ccccc1
CCOCCCn1c(SCC(=O)Nc2ccccc2CC)nc2ccccc2c1=O
Cc1ccc(NC(=O)Nc2nnc(SCC(=O)N(C(C)C)C(C)C)s2)cc1
O=C(Cn1ncc2c3ccccc3n(Cc3ccccc3)c2c1=O)NCCc1ccc(Cl)cc1
Cc1ccc(OCC(=O)Nc2ccc(OCc3cc(=O)n4ccsc4n3)cc2)cc1C
CCCCNC(=O)CCC(=O)NNc1nc2ccccc2c2nc(C)nn12
Cc1ccc(C(=O)N(Cc2ccc(N(C)C)cc2)CC2CCCO2)cc1 (stereo not given)
Cc1nn(C(C)C(=O)NCc2ccc(OC(C)C)cc2)c(=O)c2c1sc1ccccc12 (stereo not given)
Cc1c(Cl)cccc1NC(=O)c1cc(-c2ccc3c(c2)OCO3)on1
COc1ccc(N2CCN(C(=O)Nc3cn(CC(C)C)c(=O)c4ccccc34)CC2)cc1
CCOC(=O)CSc1nc2ccccc2c(=O)n1-c1ccc(C(=O)NCCOC)cc1
Cc1ccc(-n2ncc3c(NCCCn4ccnc4)ncnc32)cc1C
CCOc1ccc2nc(N3CCCC(C(=O)NCCc4ccc(Cl)cc4)C3)sc2c1 (stereo not given)
